In PMC12136788:
Some of the results follow.

T1: UNK ZnF1-6 (called full-length) (human, UniProt Q9C0B0 30-357)
T1 sequence: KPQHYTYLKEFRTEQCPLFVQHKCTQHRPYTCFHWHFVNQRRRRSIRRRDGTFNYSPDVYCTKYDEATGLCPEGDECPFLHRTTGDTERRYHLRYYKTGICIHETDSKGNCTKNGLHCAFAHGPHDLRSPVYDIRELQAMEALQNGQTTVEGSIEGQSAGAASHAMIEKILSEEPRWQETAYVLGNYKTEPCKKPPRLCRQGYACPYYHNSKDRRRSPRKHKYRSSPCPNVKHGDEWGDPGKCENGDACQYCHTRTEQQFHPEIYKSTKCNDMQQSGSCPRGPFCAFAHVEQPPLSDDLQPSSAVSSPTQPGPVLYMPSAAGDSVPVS

B1: chr2:189754195:189754303:-|CDS|ENSG00000128694|unk|FALSE|unique (ssRNA)
RNA: GGGAGUUCUACAGUCCGACGAUCCCAGAGUGCUCCACCAUGAGUGGUGGGAAAGCCAUAGAACAUUUGGCCAAACAAGGAAAUAGAUUUCAUUUUGACAUCAAACCUCCCUUGCAUCAUGCUAAAAAUUGUGAUUUUUCUUUUCAACAGAGGAUUGAGCAUCA
B2: chr11:134247321:134247422:+|3pUTR|ENSG00000151502|unk|total|mutant (ssRNA)
RNA: GGGAGUUCUACAGUCCGACGAUCCCUUUUCAGAGCAUGAGGUCAGGCUCUGUAUCCCUCCUUUUCCCCGCUGAUAUUCUAACCCGAAGCAUUUGUCAAUUCCUUUGCCUCCCAACUGACAACACACGUUCAUUUUCCAACCUUCAACAGAGGAUUGAGCAUCA
B3: chr6:21593967:21594078:+|5pUTR|ENSG00000124766|unk|total|mutant (ssRNA)
RNA: GGGAGUUCUACAGUCCGACGAUCUCCGUGCCGAUUCCGCCCACAGAGAGUCCUGGAGCCACAGUCUUUUUUGCUUUGCAUUGCCGGAGAGGGACUAAGUGCCCGAGACUAUGUCGCUUUCCUGAGCUACCGAGAGCGCUCGUGCAACAGAGGAUUGAGCAUCA
B4: chr5:95604386:95604487:+|3pUTR|ENSG00000164291|msi1|FALSE|unique (ssRNA)
RNA: GGGAGUUCUACAGUCCGACGAUCCCUGCCAUCCAGUUCCCCCUCCAAGAAGCAAGUACCGAAACCACCUGCUUACGCAUUUUUAGAGAUUGGCCACAAAUUUAUAAACAAAUGUAUAUAUUCCUUUCCCCCUACACAAACGGUCAACAGAGGAUUGAGCAUCA
B5: chr10:110887682:110887783:+|CDS|ENSG00000150593|msi1|total|mutant (ssRNA)
RNA: GGGAGUUCUACAGUCCGACGAUCGUUAAGAGAUUUAAAUCUUGGUGAAAUGAAAAGUGGAGUACCAGUGUUGGCAGUAUCCUCCGCAUUGGAGGGGAAGGCCCGUCACCGAGAGAUGACAUCUAAGCUUCUUUCUGACCUUUGCAACAGAGGAUUGAGCAUCA
B6: chr15:73714018:73714119:+|3pUTR|ENSG00000103855|msi1|FALSE|unique (ssRNA)
RNA: GGGAGUUCUACAGUCCGACGAUCCCCACCCAUAAUUCUUACCCAGAGCAUGGGGUUGGGGCGGAAACCUGGAGAGAGGGACAUAGCCCCUCGCCACGGCUAGAGAAUCUGGUGGUGUCCAAAAUGUCUGUCCAGGUGUGGGCACAACAGAGGAUUGAGCAUCA
B7: chr1:208022241:208027242:-|three_prime_utr|ENSG00000076356|control|control|control (ssRNA)
RNA: GGGAGUUCUACAGUCCGACGAUCGAGACCCCAUCCUGGGGAGAGGGGAGGACUCCUCUCCCUACGCCAGCCAAGUUUCGUCAUAGCCAGUUCCAGCUGGGAGAGACAGUGGGCGUCGUCCAUCCUCAGUGAGAACACCAGAGACAACAGAGGAUUGAGCAUCA
B8: ENSG00000198589:be:win_7701|CDS|ENSG00000198589|bound_else_gene|NA|bound_elsewhere_windowed (ssRNA)
RNA: GGGAGUUCUACAGUCCGACGAUCUACAGGAAUGCACAGGAGGCAAAUCACUGACCUUUUAGACCAAAGUAUUCAAGUGCAUUCCCAGUGCUUUGUCAUCACUUCAGACAACCGCUAUAUUCUCGUCUGUGGCUUCUGGGAUAACAACAGAGGAUUGAGCAUCA
B9: chr12:12643182:12643283:+|3pUTR|ENSG00000111269|unk|FALSE|unique (ssRNA)
RNA: GGGAGUUCUACAGUCCGACGAUCCUGGAGUUGUGCACAGCACCGCAGCUAGUGGGCCUGGCUGGGGGUGCAGAAGGGCAGGGUAGUUCUUUCCAUUUCCCCUUGCAGCUACACUUACUUUCUCCCUGACUACCAAAUGGAGUGCAACAGAGGAUUGAGCAUCA
B10: chr1:203167810:203168091:-|three_prime_utr|ENSG00000133055|control|control|control (ssRNA)
RNA: GGGAGUUCUACAGUCCGACGAUCGGGCCAGGUCCACCAGGCCUACAGUCAAACUCCAGAGAUGCCCAAGACCCCCGCUUCCAUAGCGACGGCUGAUGGAACCGCCCCUGGUACCUGCUGGCCUCCCUUCCCCAGAGGCUGGUGCAACAGAGGAUUGAGCAUCA
B11: ENSG00000170743:stop:overlap|stop_codon|ENSG00000170743|stop_codon|NA|stop_codon (ssRNA)
RNA: GGGAGUUCUACAGUCCGACGAUCAUUUCCCCAGGGAGUGCAUCCUUUGGAAGGAUAUCGAAUAUGUCACCAAUAUUCUUAGCUAGCCCCUAAGAGACAGCAGGUGUUAUCUGUCCUCCGUACCACAUUUUCUUUAGAGCUUUUCAACAGAGGAUUGAGCAUCA
B12: chr1:108699644:108699745:+|CDS|ENSG00000134186|unk|total|mutant (ssRNA)
RNA: GGGAGUUCUACAGUCCGACGAUCGAUUCCAAGAAAGAGAAAAAACACAGCCGAAGCAGAAGCAGAGAAAGGAAACACAGAAGCCGGAGUCGAAGCCGAAAUGCAGGGAAACGAAGCCGAAGCCGAAGCAAAGAGAAAUCAAGUCAACAGAGGAUUGAGCAUCA
B13: chr22:41117408:41117517:+|CDS|ENSG00000100393|unk|total|mutant (ssRNA)
RNA: GGGAGUUCUACAGUCCGACGAUCCCAGGUCAAGUCAUGGCCAGCCAGGCCCAACAGAGCAGUCCUGGAUCCGGUUUGAUAAACCGCAUGGUCAAAAGCCCAAUGACACAGGCAGGCUUGACUUCUCCCAACAUGGGGAUGGGCCAACAGAGGAUUGAGCAUCA
B14: chr17:79089344:79090882:-|three_prime_utr|ENSG00000167281|control|control|control (ssRNA)
RNA: GGGAGUUCUACAGUCCGACGAUCAGACAGUGUGGAGCCCAGCGGCGGCGGAGCAGGCCCGGGCCUGAGCAGGCAGGCGCUGCUAGCAAGACUUGAUCUUUGUGGCCAGCUGUGCCAGGGGGCCGGCGGGGCUGAGGGGUGCGGCAACAGAGGAUUGAGCAUCA
B15: chr19:58354356:58356138:-|three_prime_utr|ENSG00000174586|control|control|control (ssRNA)
RNA: GGGAGUUCUACAGUCCGACGAUCUGGGAGUGCAGGGGCGGCCUUGGGUGUGGAGAACCCUGGCUGCACAGUCCCUUUGACGAUAGUCCACCGGCCACCCAGGCCUGUCUGGGGACAUGUAGGAUGGGCUCUUACCCCAGGGAGCAACAGAGGAUUGAGCAUCA
B16: chr1:113128187:113128288:+|3pUTR|ENSG00000198799|unk|total|mutant (ssRNA)
RNA: GGGAGUUCUACAGUCCGACGAUCUCAUACUUAUUUUCAAUCCUAAGUGUUCUCCCAUGGGCAGCAGCACUUCUUGAGCUGUUCCGUACUGCCACACCUUUUUAUGUCUUUACUAUGUCAGCCUCUGAUCAUUUUCACUUUGAACAACAGAGGAUUGAGCAUCA
B17: chr2:219567275:219567376:-|CDS|ENSG00000124006|msi1|FALSE|unique (ssRNA)
RNA: GGGAGUUCUACAGUCCGACGAUCUGUGUGCCCUCCGAGGGUGACUACCGCUUCCGCAUCUGCACAGUCAGCGGACAUGGCCGUAGUCCCCACGUGGUGUUCCACGGUUCUGCUCACCUUGGUGAGUUGGUCCUGCCAGACCCACAACAGAGGAUUGAGCAUCA
B18: chr1:154207159:154207278:-|3pUTR|ENSG00000143612|msi1_unk|FALSE|overlapping (ssRNA)
RNA: GGGAGUUCUACAGUCCGACGAUCUUCCCCAACCCUUCCUUAUGAGCAUUUUUAGAACAUUGGCUAAGACUAUUUUCCCCCAGUAGCGCUUUUUUCUGGAUUUGCAUUCAGGUGUUAUUCUUAAUGUUUCUGUCAAAGCUUCUUCAACAGAGGAUUGAGCAUCA
B19: chr17:2300308:2300409:-|CDS|ENSG00000070366|unk|total|mutant (ssRNA)
RNA: GGGAGUUCUACAGUCCGACGAUCGACCCAGAAAAUAAUCGGGGACAAGAAUCCUUUCCCCGGACUGCUGGACAAGAGGAUCGCCGUCUAAAAAUUAUCAAAAGAACAAAGAAACCCGACCUGCAGAUCUAUCAGCCUGGACGACAACAGAGGAUUGAGCAUCA
B20: chr6:36925443:36925544:+|3pUTR|ENSG00000198663|msi1|FALSE|unique (ssRNA)
RNA: GGGAGUUCUACAGUCCGACGAUCGAGGCAUCCCGUGGGAAAGUCCCCUAAGUCCCAUUUUGUACUUCAACAAAAAAUGACUGUAGCAGAAGAUAAGUGGAGACUUUUAUGGAUAUACUACUCAUUUUACUUAAAAUCUACCCACAACAGAGGAUUGAGCAUCA
B21: ENSG00000023516:stop:overlap|stop_codon|ENSG00000023516|stop_codon|NA|stop_codon (ssRNA)
RNA: GGGAGUUCUACAGUCCGACGAUCAAAAAGCUUCCAGUGAGGAGAGAUGCAAGUCGCUGUUUGAUUGGCUCUUGGAAAAUGCAUAGAGCAAACCCCAAACCAGUAUAUUUUAGUAUUUGUUUGGGGAGGGGAACAAGCCAAUAACAACAGAGGAUUGAGCAUCA
B22: ENSG00000107021:stop:overlap|stop_codon|ENSG00000107021|stop_codon|NA|stop_codon (ssRNA)
RNA: GGGAGUUCUACAGUCCGACGAUCACCCCAUCACAGAUGUCUGCCAGAUCCUGCAGAAAGCCAAGGAGCUCCAAGACUCAAAGUAGCCCGGCGGCAAGAGGCCCAUGUUCCGGAGAGAAGCCUCCCGACCCUGUGCCCUGGCUCCAACAGAGGAUUGAGCAUCA

Each binder was assayed against T1, UNK ZnF1-6 (called full-length) (assay: nsRBNS (natural sequence RNA bind-n-seq); RBNS binding buffer (assumed for nsRBNS): 25 mM Tris pH 7.5, 150 mM KCl, 3 mM MgCl2, 0.01% Triton X-100, 500 ug/ml BSA, 20 U/ml SUPERase-In, 4 C; UNK is unkempt and MSI1 is Musashi-1; names of the RNAs are library labels; protein concentration not given here; high values mean tight binding).
For B1, the binding signal was 0.534 enrichment R. In the case of B2, the binding signal is reported as 0.668 enrichment R. B3 showed a binding signal of 0.735 enrichment R. For B4, the binding signal was 1.43 enrichment R. Work on B5 yielded a binding signal of 0.611 enrichment R. In the case of B6, the binding signal is reported as 0.628 enrichment R. For B7, the binding signal was 0.603 enrichment R. In the case of B8, the binding signal is reported as 0.691 enrichment R. Work on B9 yielded a binding signal of 1.04 enrichment R. B10 showed a binding signal of 0.762 enrichment R. In the case of B11, the binding signal is reported as 0.579 enrichment R. B12 was tested, and the binding signal was 0.594 enrichment R. B13 gave a binding signal of 0.718 enrichment R. Binder B14 has a binding signal of 1.09 enrichment R. With B15 the binding signal was 0.849 enrichment R. B16 gave a binding signal of 0.612 enrichment R. In the case of B17, the binding signal is reported as 0.57 enrichment R. B18 was tested, and the binding signal was 0.832 enrichment R. With B19 the binding signal was 0.757 enrichment R. B20 was tested, and the binding signal was 0.663 enrichment R. Work on B21 yielded a binding signal of 0.794 enrichment R. With B22 the binding signal was 0.545 enrichment R.
